Reference: publication PMC4336329 (PLoS ONE, 2015)
The whole screen tested about 310,000 compounds, of which about 14,000 (4.5%) showed an effect of 50% or more. The effect is printed as a negative number. Some of the results follow.
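Also: peak tail current of the secondary pulse compared with the same well before compound.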

Each molecule was assayed against human ether-à-go-go-related gene (hERG) potassium channel (human, UniProt Q12809) (assay: primary screen, population patch clamp on CHO cells stably expressing hERG).
Sequence of human ether-à-go-go-related gene (hERG) potassium channel (Q12809 whole entry, looked up): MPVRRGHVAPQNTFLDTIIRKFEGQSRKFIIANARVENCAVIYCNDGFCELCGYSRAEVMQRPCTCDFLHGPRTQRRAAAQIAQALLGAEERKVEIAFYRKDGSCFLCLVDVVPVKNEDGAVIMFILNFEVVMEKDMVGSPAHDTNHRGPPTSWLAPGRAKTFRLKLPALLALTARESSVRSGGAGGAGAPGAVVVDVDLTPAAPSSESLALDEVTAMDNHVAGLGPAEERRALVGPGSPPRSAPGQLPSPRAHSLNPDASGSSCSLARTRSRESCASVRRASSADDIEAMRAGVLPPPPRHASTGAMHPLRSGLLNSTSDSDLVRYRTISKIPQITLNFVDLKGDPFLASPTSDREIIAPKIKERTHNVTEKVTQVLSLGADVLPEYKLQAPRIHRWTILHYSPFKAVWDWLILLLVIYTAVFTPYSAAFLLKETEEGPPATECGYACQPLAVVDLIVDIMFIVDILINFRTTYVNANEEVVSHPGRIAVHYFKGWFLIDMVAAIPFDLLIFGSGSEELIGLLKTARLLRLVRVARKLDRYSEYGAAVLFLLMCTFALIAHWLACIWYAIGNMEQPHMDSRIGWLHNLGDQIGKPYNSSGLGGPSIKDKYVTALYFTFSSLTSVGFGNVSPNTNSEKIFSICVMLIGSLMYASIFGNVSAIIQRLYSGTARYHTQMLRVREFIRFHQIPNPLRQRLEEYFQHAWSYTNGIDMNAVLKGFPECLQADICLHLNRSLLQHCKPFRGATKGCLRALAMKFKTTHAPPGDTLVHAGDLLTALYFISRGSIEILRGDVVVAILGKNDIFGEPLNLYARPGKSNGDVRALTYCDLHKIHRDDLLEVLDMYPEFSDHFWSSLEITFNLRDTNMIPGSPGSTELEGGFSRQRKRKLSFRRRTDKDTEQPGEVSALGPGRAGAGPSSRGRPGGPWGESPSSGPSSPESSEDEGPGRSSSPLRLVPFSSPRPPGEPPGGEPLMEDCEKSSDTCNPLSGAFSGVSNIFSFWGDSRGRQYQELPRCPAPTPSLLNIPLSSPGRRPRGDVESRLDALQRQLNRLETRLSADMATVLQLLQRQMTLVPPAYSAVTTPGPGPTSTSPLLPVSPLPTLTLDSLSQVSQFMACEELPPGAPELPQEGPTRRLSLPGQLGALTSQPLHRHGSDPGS
In the case of `Cc1ccc(NS(=O)(=O)c2ccc3[nH]c(=O)c(=O)[nH]c3c2)cc1Cl`, the “hERG current change (%, negative = inhibition) at 10uM” value is reported as 28.1%.
In the case of `COc1cccc(CNC(=O)C(=O)NCC(c2ccco2)N2CCOCC2)c1` (stereo not shown), the “hERG current change (%, negative = inhibition) at 10uM” value is reported as 5.02%.
For `COc1cccc(NC(=O)Nc2cccnc2)c1`, the “hERG current change (%, negative = inhibition) at 10uM” value was 1.55%.
For `CC(=O)N1C(=O)CC(C)N(C(C)=O)c2ccc([N+](=O)[O-])cc21` (stereo not shown), the “hERG current change (%, negative = inhibition) at 10uM” value was -9.08%.
For `CN(C(=O)CN1C(=O)c2ccccc2S1(=O)=O)c1ccccc1C(=O)O`, the “hERG current change (%, negative = inhibition) at 10uM” value was 25.6%.
`O=C(COC(=O)c1sc2ccccc2c1Cl)NC1CCCCC1` was tested, and the “hERG current change (%, negative = inhibition) at 10uM” value was 17.1%.
With `S=C(NCCN1CCOCC1)Nc1ccc(Br)cc1` the “hERG current change (%, negative = inhibition) at 10uM” value was 5.71%.
With `Cc1c(Cl)cccc1Nc1nc(N)nc(CN2CCc3ccccc3C2)n1` the “hERG current change (%, negative = inhibition) at 10uM” value was -33%.
For `COc1ccc2nc(N3CCCC(C(=O)NCCc4ccc(OC)c(OC)c4)C3)sc2c1` (stereo not shown), the “hERG current change (%, negative = inhibition) at 10uM” value was -19.1%.
`N#Cc1ccc(OCC(=O)NC2=NCCS2)cc1` was tested, and the “hERG current change (%, negative = inhibition) at 10uM” value was 16.6%.
In the case of `COCCNc1cc(C)nc2c3c(C)cc(C)nc3nn12`, the “hERG current change (%, negative = inhibition) at 10uM” value is reported as -17.5%.
For `COC(=O)[C@@H]1CCCN1C(=O)CCc1nnc(CCC2CCCCC2)o1`, the “hERG current change (%, negative = inhibition) at 10uM” value was -6.51%.
In the case of `O=C(COC(=O)Cc1ccc(Cl)cc1)Nc1ccc(OC(F)F)cc1`, the “hERG current change (%, negative = inhibition) at 10uM” value is reported as 4.27%.
`CCn1cnc2c1c(=O)n(CC(=O)Nc1ccc3c(c1)OC(F)(F)O3)c(=O)n2Cc1ccccc1` was tested, and the “hERG current change (%, negative = inhibition) at 10uM” value was -9.18%.
In the case of `O=C1C2C(C(=O)N1/N=C/c1cc(Br)cc([N+](=O)[O-])c1O)C1C=CC2C12CC2` (stereo not shown), the “hERG current change (%, negative = inhibition) at 10uM” value is reported as -3.53%.
For `CC(C)CCOCc1nc2sc3c(c2c(=O)[nH]1)CCC(C)C3` (stereo not shown), the “hERG current change (%, negative = inhibition) at 10uM” value was -8.65%.
With `Cc1nn(C)cc1/C=N/NC(=O)c1ccco1` the “hERG current change (%, negative = inhibition) at 10uM” value was 3.44%.
`COc1ccc(OC)c(NC(=O)COC(=O)c2n[nH]c3ccccc23)c1` was tested, and the “hERG current change (%, negative = inhibition) at 10uM” value was -7.8%.
In the case of `COc1ccc(C2CCCN2C(=O)c2cccs2)cc1` (stereo not shown), the “hERG current change (%, negative = inhibition) at 10uM” value is reported as 11%.
`Cc1ccccc1OCC(=O)Nc1cccc(S(=O)(=O)NC2=NCCC2)c1` was tested, and the “hERG current change (%, negative = inhibition) at 10uM” value was -27.5%.
`Nc1nc(SCC(=O)N2CCCCCC2)[nH]c(=O)c1NC(=O)c1ccco1` was tested, and the “hERG current change (%, negative = inhibition) at 10uM” value was 9.72%.
For `CCOC(=O)C1CCN(/C=C2\C(=O)NC(=S)N(CC)C2=O)CC1`, the “hERG current change (%, negative = inhibition) at 10uM” value was 10%.
With `CC(=O)Oc1ccccc1N(C(C)=O)S(=O)(=O)c1ccc2ccccc2c1` the “hERG current change (%, negative = inhibition) at 10uM” value was 7.06%.
In the case of `CN1CCN(C(=S)Nc2ccc([N+](=O)[O-])cc2)CC1`, the “hERG current change (%, negative = inhibition) at 10uM” value is reported as -23.1%.
`CC(/C=C/c1ccc(N(C)C)cc1)=N/N=C1/NC(=O)CC(C(=O)Nc2ccc(Cl)cc2)S1` (stereo not shown) was tested, and the “hERG current change (%, negative = inhibition) at 10uM” value was 5.34%.
In the case of `COC(=O)C1=C(c2cccc(OC)c2OC)C[C@@H]2CC[C@H]1N2C(=O)NC1CC1`, the “hERG current change (%, negative = inhibition) at 10uM” value is reported as 16.7%.
`CCn1ccnc1CN(C)C(=O)CCc1nnc(CCC2CCCCC2)o1` was tested, and the “hERG current change (%, negative = inhibition) at 10uM” value was -27.7%.
With `Cc1ccc(CNS(=O)(=O)c2c(C)[nH]c(C)c2C(=O)N2CCCCC2)o1` the “hERG current change (%, negative = inhibition) at 10uM” value was -0.256%.
`O=C(Cn1c(=O)cnc2ccccc21)NNC(=O)c1ccccc1Cl` was tested, and the “hERG current change (%, negative = inhibition) at 10uM” value was 4.84%.
`Cc1cc(C)n(Cc2ccc(C(=O)NN)o2)n1` was tested, and the “hERG current change (%, negative = inhibition) at 10uM” value was 10.1%.
In the case of `S=c1nc(-c2csc3c2CCCC3)[nH][nH]1`, the “hERG current change (%, negative = inhibition) at 10uM” value is reported as 23.2%.
In the case of `Cc1noc(C)c1C(=O)OC(C(=O)NC1CCCC1)c1ccc(F)cc1` (stereo not shown), the “hERG current change (%, negative = inhibition) at 10uM” value is reported as 5.75%.
In the case of `CCCC1=C(C(=O)OCC)C(c2cc(Cl)cc(OC)c2OCC(=O)OCC)NC(=O)N1` (stereo not shown), the “hERG current change (%, negative = inhibition) at 10uM” value is reported as -6.07%.
`CCOc1ccc(S(=O)(=O)N(CC(=O)Nc2cccnc2)c2ccc(F)cc2)cc1` was tested, and the “hERG current change (%, negative = inhibition) at 10uM” value was 2.96%.
With `Cc1ccc(NC(=O)CCCCCC2NC(=O)NC2C)cc1` (stereo not shown) the “hERG current change (%, negative = inhibition) at 10uM” value was 0.514%.
`Cc1nc(N)[nH]c(=O)c1CCC(=O)OCC(C)C` was tested, and the “hERG current change (%, negative = inhibition) at 10uM” value was 8.83%.
With `COCCCN1C(=O)c2[nH]nc(-c3ccccc3O)c2C1c1cccc(Cl)c1` (stereo not shown) the “hERG current change (%, negative = inhibition) at 10uM” value was 20.9%.
For `Cc1ccc(NC(=O)Cc2ccc(-c3ccccc3)cc2)nc1`, the “hERG current change (%, negative = inhibition) at 10uM” value was 12.9%.
`COC(=O)[C@H](Cc1ccccc1)NC(=O)Nc1ccc(OC)cc1` was tested, and the “hERG current change (%, negative = inhibition) at 10uM” value was 5.76%.
In the case of `COC(=O)Nc1ccc(S(=O)(=O)N(CCO)CCO)cc1`, the “hERG current change (%, negative = inhibition) at 10uM” value is reported as -3%.
With `CCOC(=O)c1c(NC(=O)Cc2cccs2)sc(C(=O)NC2CCCC2)c1C` the “hERG current change (%, negative = inhibition) at 10uM” value was -3.25%.
For `CC12CN3CC(C)(CN(C1)C3c1ccc(F)cc1)C2` (stereo not shown), the “hERG current change (%, negative = inhibition) at 10uM” value was -36.1%.
For `O=c1c2c(-c3ccccc3)csc2ncn1/N=C/c1ccc(O)c([N+](=O)[O-])c1`, the “hERG current change (%, negative = inhibition) at 10uM” value was -3.75%.
In the case of `C/C(N)=C(/C#N)C(=O)CN1CCCCC1`, the “hERG current change (%, negative = inhibition) at 10uM” value is reported as 8.56%.
With `CC(Sc1nnc(Cc2ccc3c(c2)OCO3)o1)C(N)=O` (stereo not shown) the “hERG current change (%, negative = inhibition) at 10uM” value was 7.62%.
`Cc1ccc(C(=O)CSc2nc3cccnc3n2C)cc1` was tested, and the “hERG current change (%, negative = inhibition) at 10uM” value was 5.94%.
With `C/C(=N\NC(N)=S)c1ccc(Cl)s1` the “hERG current change (%, negative = inhibition) at 10uM” value was 12.4%.
`C[C@@H]1CCC[C@@]2(O[C@H](CCO)C[C@H](O)[C@H]2O)O1` was tested, and the “hERG current change (%, negative = inhibition) at 10uM” value was 6.68%.
`CCOc1nc(-c2ccccc2)c2cc(Br)ccc2n1` was tested, and the “hERG current change (%, negative = inhibition) at 10uM” value was 20.5%.
With `COc1ccc(/C=N\NC(=O)c2cc(OCC(F)(F)F)ccc2OCC(F)(F)F)cc1` the “hERG current change (%, negative = inhibition) at 10uM” value was -0.329%.
With `CC(C)(C)N=C1NN=C(c2ccc(Cl)cc2)CS1` the “hERG current change (%, negative = inhibition) at 10uM” value was -3.18%.
`Cc1ccc2oc(=O)n(CC(=O)OC(C)C)c2c1` was tested, and the “hERG current change (%, negative = inhibition) at 10uM” value was -7.59%.
With `CCOC(=O)N/N=C\C=C\c1ccc2c(c1)OCO2` the “hERG current change (%, negative = inhibition) at 10uM” value was -6.51%.
In the case of `COc1cccc(-c2nc(CS(=O)(=O)CC(=O)Nc3ccc(C(C)=O)cc3)c(C)o2)c1`, the “hERG current change (%, negative = inhibition) at 10uM” value is reported as 10.5%.
For `CC(NC(=O)c1sc2cc([N+](=O)[O-])ccc2c1Cl)C(C)(C)C` (stereo not shown), the “hERG current change (%, negative = inhibition) at 10uM” value was -0.962%.
In the case of `COc1cccc(/C=C/C(=O)NCc2ccc3c(c2)OCO3)c1`, the “hERG current change (%, negative = inhibition) at 10uM” value is reported as -32%.
`NC(=O)CN1C(=O)NC2(CCOc3ccccc32)C1=O` (stereo not shown) was tested, and the “hERG current change (%, negative = inhibition) at 10uM” value was 22.7%.
With `COCCN(C(=O)COC(=O)C(c1ccccc1)c1ccccc1)c1c(N)n(Cc2ccccc2)c(=O)[nH]c1=O` the “hERG current change (%, negative = inhibition) at 10uM” value was -10.6%.
